This is one part of the list.

The target in the experiment is T1, OsWOX13 (Oryza sativa, UniProt Q5QMM3 1-267).
T1 sequence: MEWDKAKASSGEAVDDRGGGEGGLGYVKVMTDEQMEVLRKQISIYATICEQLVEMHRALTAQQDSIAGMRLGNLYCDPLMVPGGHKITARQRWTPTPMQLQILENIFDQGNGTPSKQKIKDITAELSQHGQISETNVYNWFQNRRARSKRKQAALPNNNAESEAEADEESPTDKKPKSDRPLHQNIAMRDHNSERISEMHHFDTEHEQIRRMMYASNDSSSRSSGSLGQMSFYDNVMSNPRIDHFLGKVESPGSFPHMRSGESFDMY
Kind of experiment: protein-binding microarray (RPBM); PBS, 2% BSA, 51.3 ng/ul salmon testes DNA, 50 uM zinc acetate, 200 nM TF, 25 C, 1 h; high values mean tight binding. The conditions noted are these: protein: recombinant; tags: N-terminal polyhistidine and DsRed monomer fusion (pET32a); label: CyDye5-dUTP incorporated in the synthesized complementary strand; 3' TTTTT single-stranded linker to array surface; dsDNA, one strand shown. The essentials: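 Polyhistidine-tagged DsRed fusions of transcription factors, joined at the N-terminus, were expressed in E. coli BL21-CodonPlus and isolated on Ni–NTA. They were incubated at 200 nM for 1 h at 25 °C on a custom Agilent array, double-stranded and BSA-blocked, in PBS with 2% BSA, salmon testes DNA and 50 µM zinc acetate. The binding signal is per-feature fluorescence intensity (arbitrary units) read on an Axon 4000B scanner after washing.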
With “TGTCATCAAACAAATTAACCAGCCCACTCAGGCCAAGCCCCGGAGTCACCTAGTGCAG”, the binding signal is 3770 fluorescence intensity (a.u.). For “GTGTAATTTGTATAAGTAGCTACCATTAACTAAAATTCAGCGGAGTCACCTAGTGCAG”, the binding signal is 11200 fluorescence intensity (a.u.). Take “CTTAATCTTGTCATCACGAGAAGATTAGCGTTGGAAGAAACGGAGTCACCTAGTGCAG”: the binding signal is 3580 fluorescence intensity (a.u.). With “TGGTGGGTGGTTGATTGATTGTTCTTTCCTTCCTCGTGAGCGGAGTCACCTAGTGCAG”, the binding signal is 34000 fluorescence intensity (a.u.). As to “CCGATTCAATTTTAAATTTGAATTCAAATTTGAATTTGAACGGAGTCACCTAGTGCAG”, the binding signal is 6920 fluorescence intensity (a.u.). As for “CAAATAAACCGGCACCTATAATCATTTAACCAACTCCGCACGGAGTCACCTAGTGCAG”, the figure is 3710 fluorescence intensity (a.u.); as for “CCTTACAATATTAATTAAGCTGTATAAGTAGTTTACTACACGGAGTCACCTAGTGCAG”, 3380 fluorescence intensity (a.u.); as for “ACAGCTAATTAAGCAATTTAATTTTGTCACCACAATTTGCCGGAGTCACCTAGTGCAG”, 50200 fluorescence intensity (a.u.).

On to “ATATATTTTAGACAGACGAGCATATATGGACAGGCAACGGCGGAGTCACCTAGTGCAG”, for which the binding signal is 5340 fluorescence intensity (a.u.). The value for “GAAAATTGCTGATGATATACATCAATGTGGCTGCCATGGTCGGAGTCACCTAGTGCAG” was 11100 fluorescence intensity (a.u.). “ATATACATCATCAGTACTCTAATTGAAATATATGATCCTACGGAGTCACCTAGTGCAG”: the binding signal is 13100 fluorescence intensity (a.u.).

Turning to “TTGCCAAATTTAAATTTTAAACTTGATTTTAAGTTTTAGTCGGAGTCACCTAGTGCAG”, the binding signal is 23500 fluorescence intensity (a.u.). The value for “ATAATTAGTTAATACTTCCATCAAGGAGTAATAAAGTCAGCGGAGTCACCTAGTGCAG” was 11300 fluorescence intensity (a.u.). As for “AGAACATTAAGAAAACTTAATTGCCTAGACTTGTATGATGCGGAGTCACCTAGTGCAG”, the figure is 6380 fluorescence intensity (a.u.); as for “ATGATTGCTGCGTCCCGGGAAAAGAGGGGCAAAAGCGTACCGGAGTCACCTAGTGCAG”, 7680 fluorescence intensity (a.u.); as for “CTCACCAAATTGGCAAACTCATTGAGAGACTCGATCTTTGCGGAGTCACCTAGTGCAG”, 19100 fluorescence intensity (a.u.). On to “TTGAAATGGAGGGAGTAATTACGGCGTACATTTCCCTCTCCGGAGTCACCTAGTGCAG”, for which the binding signal is 4780 fluorescence intensity (a.u.).

With “AAAATCAAAACAATCACGAGATTAGAAGCATCTTTTAGTACGGAGTCACCTAGTGCAG”, the binding signal was 8560 fluorescence intensity (a.u.). For “CCCCTGACATCAATCGTCGCACCATCCATTCGATCGGTTTCGGAGTCACCTAGTGCAG”, the binding signal is 4720 fluorescence intensity (a.u.).

For “AGTAAATTGGAGCTTACTGCCCTGCCATGAATGCCTGTTTCGGAGTCACCTAGTGCAG”, the binding signal is 29900 fluorescence intensity (a.u.). For the sequence “ATATTTAATTATTACGAACACAACGGTATAATCGGATTGTCGGAGTCACCTAGTGCAG”, the binding signal was 23400 fluorescence intensity (a.u.). Take “GAAATTGAGTATATAACTAATTCAAATGAGTATGAAACTTCGGAGTCACCTAGTGCAG”: the binding signal was 7250 fluorescence intensity (a.u.).

“TTCCTCTTATGATTGATTTGAAGATGCCCTTATCCATATTCGGAGTCACCTAGTGCAG”: the binding signal was 26700 fluorescence intensity (a.u.).

In the case of “TAGGTTGATGCAAATTGAAAATATATGTTGCGAGCGGCGGCGGAGTCACCTAGTGCAG”, the binding signal was 6430 fluorescence intensity (a.u.).

In the case of “AAAACTTTTATATGACTGTTTAAATTACATGTATACACCTCGGAGTCACCTAGTGCAG”, the binding signal is 6500 fluorescence intensity (a.u.). As for “TGTCCCTCAATCAATTTGGTTATGTCCTTCATATTTCGTTCGGAGTCACCTAGTGCAG”, the figure is 18600 fluorescence intensity (a.u.); as for “GTAATTTATAGTCAAATTTGTTATTTTGTTTCGAATTATACGGAGTCACCTAGTGCAG”, 14600 fluorescence intensity (a.u.); as for “TAAATTTATCATAATTAATATCAAATGCTTTAGTTTATGCCGGAGTCACCTAGTGCAG”, 25900 fluorescence intensity (a.u.). On to “GCGTGATGAGCTGCCCCGGTCGCGATTGCTGGGCTCCGCTCGGAGTCACCTAGTGCAG”, for which the binding signal was 4430 fluorescence intensity (a.u.). With “CAGATTAATTGTTATTCATATATATACATTGACACTCGTTCGGAGTCACCTAGTGCAG”, the binding signal was 34500 fluorescence intensity (a.u.).

Consider “TTAAAATTGATGGACAACATTAATTATTATTTAAGTAAAACGGAGTCACCTAGTGCAG”, for which the binding signal is 28300 fluorescence intensity (a.u.).

Regarding “ACGTTTGATATGATAGAATGTAAAGTTTTGGGATGGGATGCGGAGTCACCTAGTGCAG”, the binding signal is 6280 fluorescence intensity (a.u.). Turning to “TTTTCTGATTAATATGAGAATTTCTAAGCCGTGAGAACGACGGAGTCACCTAGTGCAG”, the binding signal was 11800 fluorescence intensity (a.u.).

Consider “CTCGATACTTAATTGTCTGCCTTAGACGACGTCCGCAGACCGGAGTCACCTAGTGCAG”, for which the binding signal was 6060 fluorescence intensity (a.u.).

Take “GTCTTCCGCGGCGGCGGCGGGGAAGCGGGCGCGGGCGGGGCGGAGTCACCTAGTGCAG”: the binding signal is 8250 fluorescence intensity (a.u.).

Regarding “GCAGTCCAACCAATCAGCCAAGTTGGTCAAAGGAGAGAGACGGAGTCACCTAGTGCAG”, the binding signal was 3950 fluorescence intensity (a.u.). For “ACCTTAATCGATCTTAATTAATCGCTAACCTTTATGTCATCGGAGTCACCTAGTGCAG”, the binding signal is 21000 fluorescence intensity (a.u.).

Take “CAATTATAACAAAATTGACAGCAAATGGTGCATACTATTTCGGAGTCACCTAGTGCAG”: the binding signal was 20500 fluorescence intensity (a.u.). For the sequence “GGTGTGTTTATAATTAATATACAGATTGTGTCACATTGTTCGGAGTCACCTAGTGCAG”, the binding signal is 8600 fluorescence intensity (a.u.).

With “GTTAACAATTCTTACCCTACCAATCATCTGTTAGACTATTCGGAGTCACCTAGTGCAG”, the binding signal is 4790 fluorescence intensity (a.u.). As for “TAAAATTCCAATTGACAAGTACAATGACAAGATTGGTTACCGGAGTCACCTAGTGCAG”, the figure is 19900 fluorescence intensity (a.u.); as for “TAATAAATTTGAGATTAAGACTTTATACATTAAGTGTAATCGGAGTCACCTAGTGCAG”, 9220 fluorescence intensity (a.u.).

The values are drawn from PMC7819943, “Rice protein-binding microarrays: a tool to detect cis-acting elements near promoter regions in rice”.
